# According to publication PMC4336329 (PLoS ONE, 2015):
# Hit rate of the full screen: of about 310,000 compounds, about 14,000 (4.5%) showed an effect of 50% or more. The effect is printed as a negative number. The list shows a part of the results.
# Target: human ether-à-go-go-related gene (hERG) potassium channel (human, UniProt Q12809)
# Assay: primary screen, population patch clamp on CHO cells stably expressing hERG
# 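Note: peak tail current of the secondary pulse compared with the same well before compound.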
# human ether-à-go-go-related gene (hERG) potassium channel, sequence (Q12809 whole entry, looked up): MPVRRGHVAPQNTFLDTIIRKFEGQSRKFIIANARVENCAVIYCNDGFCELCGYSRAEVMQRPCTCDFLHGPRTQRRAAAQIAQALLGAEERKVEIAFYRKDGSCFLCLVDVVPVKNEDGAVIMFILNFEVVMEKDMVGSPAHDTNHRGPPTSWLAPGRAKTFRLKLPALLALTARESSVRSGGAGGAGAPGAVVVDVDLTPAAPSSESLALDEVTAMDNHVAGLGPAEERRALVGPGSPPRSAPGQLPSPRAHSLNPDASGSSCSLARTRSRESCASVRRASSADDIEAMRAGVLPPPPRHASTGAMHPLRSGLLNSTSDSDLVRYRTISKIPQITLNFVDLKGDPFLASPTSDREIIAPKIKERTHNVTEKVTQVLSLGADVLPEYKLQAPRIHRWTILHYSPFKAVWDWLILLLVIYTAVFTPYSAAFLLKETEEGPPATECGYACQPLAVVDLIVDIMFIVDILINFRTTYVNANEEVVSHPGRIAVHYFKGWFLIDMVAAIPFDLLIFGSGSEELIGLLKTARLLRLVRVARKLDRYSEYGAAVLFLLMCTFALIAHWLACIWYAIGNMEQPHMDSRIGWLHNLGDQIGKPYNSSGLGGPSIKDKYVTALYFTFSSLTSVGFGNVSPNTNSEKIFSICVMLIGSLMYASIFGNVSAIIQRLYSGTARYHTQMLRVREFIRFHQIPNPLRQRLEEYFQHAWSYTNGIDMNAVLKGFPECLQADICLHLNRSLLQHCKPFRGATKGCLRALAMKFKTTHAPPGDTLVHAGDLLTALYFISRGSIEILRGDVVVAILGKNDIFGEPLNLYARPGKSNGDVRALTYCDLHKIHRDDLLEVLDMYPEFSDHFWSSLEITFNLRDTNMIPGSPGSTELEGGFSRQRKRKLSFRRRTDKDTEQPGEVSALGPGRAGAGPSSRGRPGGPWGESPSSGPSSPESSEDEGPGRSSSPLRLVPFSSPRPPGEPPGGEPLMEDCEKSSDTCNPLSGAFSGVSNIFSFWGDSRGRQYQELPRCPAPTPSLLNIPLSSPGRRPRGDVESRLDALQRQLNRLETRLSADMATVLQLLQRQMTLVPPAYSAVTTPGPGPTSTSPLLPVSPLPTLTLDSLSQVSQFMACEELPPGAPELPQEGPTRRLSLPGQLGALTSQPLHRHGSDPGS
row,SMILES,"hERG current change (%, negative = inhibition) at 10uM [%]"
1,CCOC(=O)c1ccc(NC(=O)C2C3C=CC(O3)C2C(=O)O)cc1 (centres unmarked),7.63
2,Cc1cccc(-c2nnc(SCC(=O)Nc3ncccn3)n2C)c1,1.62
3,CCN1C(=O)c2cccc3c(NC(=O)c4cccc(N5C(=O)CCC5=O)c4)ccc1c23,-6.22
4,O=C(c1ccc(Br)o1)N1CCC(c2nc3ccccc3[nH]2)CC1,-36.5
5,O=C(O)CSC12CC3CC(C1)CC(C(=O)O)(C3)C2,18.1
6,COc1ccc(C2C(C#N)=C(N)N(c3cccnc3)C3=C2C(=O)CC(C)(C)C3)cc1OC (centres unmarked),-4.55
7,Cc1ccc(S(=O)(=O)N2CCCCC2C(=O)N(C)c2ccccc2)cc1 (centres unmarked),-0.169
8,Cc1noc(C)c1COc1cccc(C(=O)N2CCN(C/C=C/c3ccccc3)CC2)c1,-31.1
9,COc1ccc(CNC(=O)c2ccc(NC(=O)C3CCCO3)cc2)cc1 (centres unmarked),-4.91
10,CN(C)C(CNC(=O)Cc1ccc(Br)cc1)c1ccccc1 (centres unmarked),-17.8
11,Cc1cccc(NNC(=O)C2CCC2)c1,-1.35
12,COc1cccc(-c2c(NC(=O)c3ccco3)oc3ccc(Cl)cc3c2=O)c1,9.72
13,CCC1CCCCN1C(=O)CSc1nnc(-c2c[nH]c3ccccc23)o1 (centres unmarked),7.07
14,C/C(=N\O)c1oc2ccc3c(C)cc(=O)oc3c2c1C,7.94
15,O=C(Nc1ccc(Oc2ncnc3cc(Cl)ccc23)nc1)c1cccs1,6.53
16,Cc1cc(-c2nnc(CCC(=O)N3CCN(Cc4cccnc4)CC3)o2)c(C)o1,0.364
17,CCOC(=O)N1CCN(C(=O)CNC(=O)c2nn(-c3ccc(OC)cc3)c(=O)c3ccccc23)CC1,-6.53
18,O=C(Nc1ccc(OC(F)(F)C(F)F)c(NC(=O)c2cccc(F)c2)c1)c1cccc(F)c1,2.42
19,COC(=O)C1(CCSC)NC(c2ccc(OC)cc2OC)C2C(=O)N(c3cccc(C(C)=O)c3)C(=O)C21 (centres unmarked),0.658
20,CN(C(=O)c1ccc(-c2nn(C)c(=O)c3ccccc23)cc1)c1ccccc1,-14.8
21,Cc1ccc(Cc2c(C)c(C#N)c3[nH]c4ccccc4n3c2=O)cc1,11.4
22,CN(CC(=O)NCCN1CCCCCC1)S(=O)(=O)c1cccc2nsnc12,-3.32
23,O=C(CSc1cccc2cccnc12)OCC(=O)c1ccc(Br)cc1,4.26
